# Measurements taken from a collection of fitness landscapes (doi:10.1126/science.1257360).
# The list shows a part of the results.
# B1: PhoQ; a variant is named by its letters at X, in order, P23837 (parent)
# chain: MKKLLRLFFPLSLRVRFLLATAAVVLVLSLAYGMVALIGYSVSFDKTTFRLLRGESNLFYTLAKWENNKLHVELPENIDKQSPTMTLIYDENGQLLWAQRDVPWLMKMIQPDWLKSNGFHEIEADVNDTSLLLSGDHSIQQQLQEVREDDDDAEMTHSVAVNVYPATSRMPKLTIVVVDTIPVELKSSYMVWSWFIYVLSANLLLVIPLLWVAAWWSLRPIEALAKEVRELEEHNRELLNPATTRELTSLVRNLNRLLKSERERYDKYRTTLTDLTHSLKTPLXXLQXXLRSLRSEKMSVSDAEPVMLEQISRISQQIGYYLHRASMRGGTLLSRELHPVAPLLDNLTSALNKVYQRKGVNISLDISPEISFVGEQNDFVEVMGNVLDNACKYCLEFVEISARQTDEHLYIVVEDDGPGIPLSKREVIFDRGQRVDTLRPGQGVGLAVAREITEQYEGKIVAGESMLGGARMEVIFGRQHSAPKDE
# Variants of: B1
# Test: enrichment ratio after two sorts for PhoP signalling (ratio (wild type AVST 3.29)); higher = more functional
# Conditions: with PhoP (E. coli)
row,Variant,enrichment ratio
1,IRWI,≤ 0.25
2,LRWM,≤ 0.25
3,KNHC,≤ 0.25
4,WPMD,≤ 0.25
5,SPSG,≤ 0.25
6,TYTN,≤ 0.25
7,SWYH,≤ 0.25
8,DWWP,≤ 0.25
9,WSFR,≤ 0.25
10,VNRE,≤ 0.25
11,LWWM,≤ 0.25
12,IAPY,≤ 0.25
13,ESTM,≤ 0.25
14,YYSD,≤ 0.25
15,MFLR,≤ 0.25
16,VWIC,≤ 0.25
17,VAPS,≤ 0.25
18,MTYL,8.65
19,SHIC,≤ 0.25
20,EDLP,≤ 0.25
21,SDYS,≤ 0.25
22,MPEH,≤ 0.25
23,YKTF,≤ 0.25
24,DSIK,≤ 0.25
25,STAG,9.55

row,Variant,enrichment ratio
1,RFRR,≤ 0.25
2,KVYP,≤ 0.25
3,NCYA,≤ 0.25
4,PRNY,≤ 0.25
5,LTDK,≤ 0.25
6,DLWG,≤ 0.25
7,LQEY,≤ 0.25
8,FAQR,≤ 0.25
9,AICM,6.05
10,PASH,≤ 0.25
11,VYQP,≤ 0.25
12,DWRA,≤ 0.25
13,RHIG,≤ 0.25
14,IDII,≤ 0.25
15,LGER,≤ 0.25
16,FFME,≤ 0.25
17,MFGA,≤ 0.25
18,FNQR,≤ 0.25
19,GLDK,≤ 0.25
20,HAGQ,≤ 0.25
21,TPPD,≤ 0.25
22,ILYW,≤ 0.25
23,PNVV,≤ 0.25
24,FTMH,0.948
25,DQCP,≤ 0.25

row,Variant,enrichment ratio
1,HYVY,≤ 0.25
2,ESPY,≤ 0.25
3,WWNV,≤ 0.25
4,AVFY,≤ 0.25
5,EKNL,≤ 0.25
6,SLSC,5.15
7,KPSF,≤ 0.25
8,DWWY,≤ 0.25
9,KDMV,≤ 0.25
10,AKCA,≤ 0.25
11,VTYL,≤ 0.25
12,GQAL,≤ 0.25
13,WHFY,≤ 0.25
14,TVWL,≤ 0.25
15,MQMP,≤ 0.25
16,TDQL,≤ 0.25
17,YCNW,≤ 0.25
18,IQWN,≤ 0.25
19,VVMK,≤ 0.25
20,PPTA,≤ 0.25
21,YLNY,≤ 0.25
22,YLKC,≤ 0.25
23,YMCQ,0.274
24,PILC,≤ 0.25
25,YECL,1.07

row,Variant,enrichment ratio
1,YHSP,≤ 0.25
2,QTTC,≤ 0.25
3,VMID,≤ 0.25
4,LADA,≤ 0.25
5,NQFS,≤ 0.25
6,YHGC,≤ 0.25
7,WCFR,≤ 0.25
8,GSLT,9.31
9,DFTE,≤ 0.25
10,HKDF,≤ 0.25
11,TWNL,≤ 0.25
12,QANI,≤ 0.25
13,RGPP,≤ 0.25
14,FSYS,≤ 0.25
15,AFIG,1.67
16,YIHL,≤ 0.25
17,LVKP,≤ 0.25
18,GWSW,≤ 0.25
19,NTCL,≤ 0.25
20,DGVT,≤ 0.25
21,FTVM,6.58
22,IDQI,≤ 0.25
23,KHGC,≤ 0.25
24,WEKV,≤ 0.25
25,YMYM,≤ 0.25

row,Variant,enrichment ratio
1,YSRV,≤ 0.25
2,MDRQ,0.934
3,YHGT,≤ 0.25
4,VCHM,≤ 0.25
5,SKVA,1.14
6,QDLQ,≤ 0.25
7,TAVE,≤ 0.25
8,FLNH,≤ 0.25
9,VVNY,≤ 0.25
10,RKVR,≤ 0.25
11,EWLN,≤ 0.25
12,QLCP,0.681
13,DTKA,≤ 0.25
14,LLGK,≤ 0.25
15,GPTE,≤ 0.25
16,AIMQ,≤ 0.25
17,MNQK,≤ 0.25
18,METV,1.22
19,FVNW,≤ 0.25
20,WGRN,≤ 0.25
21,FADG,≤ 0.25
22,LMYQ,≤ 0.25
23,RFKG,≤ 0.25
24,YDEY,≤ 0.25
25,MCRQ,≤ 0.25

row,Variant,enrichment ratio
1,PWLK,≤ 0.25
2,KTET,≤ 0.25
3,NCNS,≤ 0.25
4,REMI,≤ 0.25
5,STEQ,≤ 0.25
6,LSKK,≤ 0.25
7,RYMS,≤ 0.25
8,DNPW,≤ 0.25
9,DKVI,≤ 0.25
10,LKKA,≤ 0.25
11,RDSI,≤ 0.25
12,IEPG,≤ 0.25
13,WCKY,≤ 0.25
14,AEPR,≤ 0.25
15,LCAE,≤ 0.25
16,NYLF,≤ 0.25
17,YLTH,≤ 0.25
18,ANWS,≤ 0.25
19,IEPP,≤ 0.25
20,IVSN,≤ 0.25
21,GQQC,≤ 0.25
22,VWNG,≤ 0.25
23,AEHW,≤ 0.25
24,RCAT,≤ 0.25
25,VHLD,≤ 0.25

row,Variant,enrichment ratio
1,GGTK,≤ 0.25
2,FCPQ,0.422
3,LFRV,≤ 0.25
4,QQMH,≤ 0.25
5,SMWW,≤ 0.25
6,YYYM,≤ 0.25
7,FQQK,≤ 0.25
8,WPIV,0.674
9,IIPE,≤ 0.25
10,PETP,≤ 0.25
11,MVLE,≤ 0.25
12,SMVW,1.49
13,AIMD,2.31
14,SYGQ,≤ 0.25
15,IQEL,≤ 0.25
16,ACMS,8.75
17,GKYG,≤ 0.25
18,GHLM,≤ 0.25
19,PHMF,≤ 0.25
20,IMVS,≤ 0.25
21,RDFE,≤ 0.25
22,QPLR,≤ 0.25
23,LKWE,≤ 0.25
24,YMHR,≤ 0.25
25,IPYE,≤ 0.25

row,Variant,enrichment ratio
1,LWVA,≤ 0.25
2,PCVY,≤ 0.25
3,LDDC,≤ 0.25
4,LMDP,≤ 0.25
5,MPAA,≤ 0.25
6,SWLP,≤ 0.25
7,DSWI,≤ 0.25
8,PIKW,≤ 0.25
9,KQMW,≤ 0.25
10,PYIC,≤ 0.25
11,PAEQ,≤ 0.25
12,DRLS,≤ 0.25
13,ISAE,≤ 0.25
14,APNY,≤ 0.25
15,DQHK,≤ 0.25
16,YMRT,≤ 0.25
17,WPER,≤ 0.25
18,RTQT,≤ 0.25
19,HAFC,≤ 0.25
20,WPHF,≤ 0.25
